# Measured values taken from the supplement of paper PMC8728848.
# The list shows a part of the results.
# B1: SGC, Q9M345 (protein)
# chain: QNLNFTYNGFHPPLTDISLQGLATVTPNGLLKLTNTSVQKTGHAFCTERIRFKDSQNGNVSSFSTTFVFAIHSQIPTLSGHGIAFVVAPTLGLPFALPSQYIGLFNISNNGNDTNHIFAVEFDTIQSSEFGDPNDNHVGIDLNGLRSANYSTAGYRDDHDKFQNLSLISRKRIQVWIDYDNRSHRIDVTVAPFDSDKPRKPLVSYVRDLSSILLEDMYVGFSSATGSVLSEHFLVGWSFRLNGEAPMLSLSKLPKLPRFEPRRIS
# How the values were obtained:
# Experiment in all cases: glycan array binding signal (z-score within array); higher = stronger binding
# Details in all cases: glycan notation: IUPAC condensed, linker removed
# [1] = target: Neu5Ac(a2-3)Gal(b1-4)GlcNAc(b1-3)[Neu5Ac(a2-3)Gal(b1-4)GlcNAc(b1-6)]GalNAc
# How it was run: (§1)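 Columns mapping to the same glycan were averaged after glycan names were converted to IUPAC-condensed notation. The data come from 3228 arrays in the Consortium for Functional Glycomics database, limited to those with an available protein sequence. Binding is reported as a within-array Z-score averaged across arrays of one protein sequence and across linkers.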
# [2] = target: Neu5Ac(a2-3)Gal(b1-4)GlcNAc(b1-6)GalNAc
# How it was run: as §1
# [3] = target: Neu5Ac(a2-3)Gal(b1-4)GlcNAc(b1-6)[Gal(b1-3)]GalNAc
# How it was run: as §1
# [4] = target: Neu5Ac(a2-3)Gal(b1-4)GlcNAc(b1-6)[Neu5Ac(a2-3)Gal(b1-3)]GalNAc
# How it was run: as §1
# [5] = target: Neu5Ac(a2-3)Gal(b1-4)GlcNAc6S
# How it was run: as §1
# [6] = target: Neu5Ac(a2-3)Gal(b1-4)[Fuc(a1-3)]GlcNAc
# How it was run: as §1
# [7] = target: Neu5Ac(a2-3)Gal(b1-4)[Fuc(a1-3)]GlcNAc(b1-2)Man
# How it was run: as §1
# [8] = target: Neu5Ac(a2-3)Gal(b1-4)[Fuc(a1-3)]GlcNAc(b1-3)Gal
# How it was run: as §1
# [9] = target: Neu5Ac(a2-3)Gal(b1-4)[Fuc(a1-3)]GlcNAc(b1-3)Gal(b1-4)GlcNAc
# How it was run: as §1
# [10] = target: Neu5Ac(a2-3)Gal(b1-4)[Fuc(a1-3)]GlcNAc(b1-3)Gal(b1-4)[Fuc(a1-3)]GlcNAc(b1-3)Gal(b1-4)[Fuc(a1-3)]GlcNAc
# How it was run: as §1
# [11] = target: Neu5Ac(a2-3)Gal(b1-4)[Fuc(a1-3)]GlcNAc(b1-3)GalNAc
# How it was run: as §1
# [12] = target: Neu5Ac(a2-3)Gal(b1-4)[Fuc(a1-3)]GlcNAc(b1-6)[Gal(b1-3)]GalNAc
# How it was run: as §1
# [13] = target: Neu5Ac(a2-3)Gal(b1-4)[Fuc(a1-3)]GlcNAc(b1-6)[Neu5Ac(a2-3)Gal(b1-3)]GalNAc
# How it was run: as §1
# [14] = target: Neu5Ac(a2-3)Gal(b1-4)[Fuc(a1-3)]GlcNAc6S
# How it was run: as §1
# [15] = target: Neu5Ac(a2-3)Gal6S(b1-4)GlcNAc
# How it was run: as §1
# [16] = target: Neu5Ac(a2-3)Gal6S(b1-4)[Fuc(a1-3)]GlcNAc
# How it was run: as §1
# [17] = target: Neu5Ac(a2-3)GalNAc
# How it was run: as §1
# [18] = target: Neu5Ac(a2-3)GalNAc(b1-4)GlcNAc
# How it was run: as §1
# [19] = target: Neu5Ac(a2-3)[GalNAc(b1-4)]Gal(b1-4)Glc
# How it was run: as §1
# [20] = target: Neu5Ac(a2-3)[GalNAc(b1-4)]Gal(b1-4)GlcNAc
# How it was run: as §1
# [21] = target: Neu5Ac(a2-3)[GalNAc(b1-4)]Gal(b1-4)GlcNAc(b1-3)GalNAc
# How it was run: as §1
# [22] = target: Neu5Ac(a2-3)[Neu5Ac(a2-6)]GalNAc
# How it was run: as §1
# [23] = target: Neu5Ac(a2-6)Gal
# How it was run: as §1
# [24] = target: Neu5Ac(a2-6)Gal(b1-3)GlcNAc(b1-3)[Gal(b1-4)GlcNAc(b1-6)]Gal(b1-4)Glc
# How it was run: as §1
# [25] = target: Neu5Ac(a2-6)Gal(b1-4)Glc
# How it was run: as §1
# [26] = target: Neu5Ac(a2-6)Gal(b1-4)GlcNAc
# How it was run: as §1
# [27] = target: Neu5Ac(a2-6)Gal(b1-4)GlcNAc(b1-2)Man
# How it was run: as §1
# [28] = target: Neu5Ac(a2-6)Gal(b1-4)GlcNAc(b1-2)Man(a1-3)Man(b1-4)GlcNAc(b1-4)GlcNAc
# How it was run: as §1
# [29] = target: Neu5Ac(a2-6)Gal(b1-4)GlcNAc(b1-2)Man(a1-3)[Gal(b1-4)GlcNAc(b1-2)Man(a1-6)]Man(b1-4)GlcNAc(b1-4)GlcNAc
# How it was run: as §1
# [30] = target: Neu5Ac(a2-6)Gal(b1-4)GlcNAc(b1-2)Man(a1-3)[GlcNAc(b1-2)Man(a1-6)]Man(b1-4)GlcNAc(b1-4)GlcNAc
# How it was run: as §1
# [31] = target: Neu5Ac(a2-6)Gal(b1-4)GlcNAc(b1-2)Man(a1-3)[GlcNAc(b1-4)][Neu5Ac(a2-6)Gal(b1-4)GlcNAc(b1-2)Man(a1-6)]Man(b1-4)GlcNAc(b1-4)GlcNAc
# How it was run: as §1
# [32] = target: Neu5Ac(a2-6)Gal(b1-4)GlcNAc(b1-2)Man(a1-3)[Man(a1-6)]Man(b1-4)GlcNAc(b1-4)GlcNAc
# How it was run: as §1
# [33] = target: Neu5Ac(a2-6)Gal(b1-4)GlcNAc(b1-2)Man(a1-3)[Neu5Ac(a2-3)Gal(b1-4)GlcNAc(b1-2)Man(a1-6)]Man(b1-4)GlcNAc(b1-4)GlcNAc
# How it was run: as §1
# [34] = target: Neu5Ac(a2-6)Gal(b1-4)GlcNAc(b1-2)Man(a1-3)[Neu5Ac(a2-6)Gal(b1-4)GlcNAc(b1-2)Man(a1-6)]Man(b1-4)GlcNAc(b1-4)GlcNAc
# How it was run: as §1
# [35] = target: Neu5Ac(a2-6)Gal(b1-4)GlcNAc(b1-2)Man(a1-3)[Neu5Ac(a2-6)Gal(b1-4)GlcNAc(b1-2)Man(a1-6)]Man(b1-4)GlcNAc(b1-4)[Fuc(a1-6)]GlcNAc
# How it was run: as §1
# [36] = target: Neu5Ac(a2-6)Gal(b1-4)GlcNAc(b1-2)Man(a1-6)Man(b1-4)GlcNAc(b1-4)GlcNAc
# How it was run: as §1
# [37] = target: Neu5Ac(a2-6)Gal(b1-4)GlcNAc(b1-2)Man(a1-6)[Gal(b1-4)GlcNAc(b1-2)Man(a1-3)]Man(b1-4)GlcNAc(b1-4)GlcNAc
# How it was run: as §1
# [38] = target: Neu5Ac(a2-6)Gal(b1-4)GlcNAc(b1-2)Man(a1-6)[GlcNAc(b1-2)Man(a1-3)]Man(b1-4)GlcNAc(b1-4)GlcNAc
# How it was run: as §1
# [39] = target: Neu5Ac(a2-6)Gal(b1-4)GlcNAc(b1-2)Man(a1-6)[Man(a1-3)]Man(b1-4)GlcNAc(b1-4)GlcNAc
# How it was run: as §1
# [40] = target: Neu5Ac(a2-6)Gal(b1-4)GlcNAc(b1-2)[Neu5Ac(a2-6)Gal(b1-4)GlcNAc(b1-4)]Man(a1-3)[GlcNAc(b1-4)][Neu5Ac(a2-6)Gal(b1-4)GlcNAc(b1-2)[Neu5Ac(a2-6)Gal(b1-4)GlcNAc(b1-6)]Man(a1-6)]Man(b1-4)GlcNAc(b1-4)GlcNAc
# How it was run: as §1
# [41] = target: Neu5Ac(a2-6)Gal(b1-4)GlcNAc(b1-2)[Neu5Ac(a2-6)Gal(b1-4)GlcNAc(b1-4)]Man(a1-3)[GlcNAc(b1-4)][Neu5Ac(a2-6)Gal(b1-4)GlcNAc(b1-4)Man(a1-6)]Man(b1-4)GlcNAc(b1-4)GlcNAc
# How it was run: as §1
# [42] = target: Neu5Ac(a2-6)Gal(b1-4)GlcNAc(b1-2)[Neu5Ac(a2-6)Gal(b1-4)GlcNAc(b1-6)]Man(a1-6)[Neu5Ac(a2-6)Gal(b1-4)GlcNAc(b1-2)Man(a1-3)][GlcNAc(b1-4)]Man(b1-4)GlcNAc(b1-4)GlcNAc
# How it was run: as §1
# [43] = target: Neu5Ac(a2-6)Gal(b1-4)GlcNAc(b1-3)Gal(b1-3)GlcNAc
# How it was run: as §1
# [44] = target: Neu5Ac(a2-6)Gal(b1-4)GlcNAc(b1-3)Gal(b1-4)GlcNAc
# How it was run: as §1
# [45] = target: Neu5Ac(a2-6)Gal(b1-4)GlcNAc(b1-3)Gal(b1-4)GlcNAc(b1-2)Man(a1-3)[Neu5Ac(a2-6)Gal(b1-4)GlcNAc(b1-3)Gal(b1-4)GlcNAc(b1-2)Man(a1-6)]GalNAc
# How it was run: as §1
binder,measurement,setting,value
B1,glycan array binding signal (z-score),[1],-0.347
same,glycan array binding signal (z-score),[2],-0.413
same,glycan array binding signal (z-score),[3],-0.262
same,glycan array binding signal (z-score),[4],-0.387
same,glycan array binding signal (z-score),[5],-0.362
same,glycan array binding signal (z-score),[6],-0.393
same,glycan array binding signal (z-score),[7],-0.404
same,glycan array binding signal (z-score),[8],-0.394
same,glycan array binding signal (z-score),[9],-0.295
same,glycan array binding signal (z-score),[10],-0.454
same,glycan array binding signal (z-score),[11],-0.202
same,glycan array binding signal (z-score),[12],8.35
same,glycan array binding signal (z-score),[13],0.04
same,glycan array binding signal (z-score),[14],-0.416
same,glycan array binding signal (z-score),[15],-0.324
same,glycan array binding signal (z-score),[16],-0.398
same,glycan array binding signal (z-score),[17],-0.375
same,glycan array binding signal (z-score),[18],-0.361
same,glycan array binding signal (z-score),[19],0.004
same,glycan array binding signal (z-score),[20],-0.138
same,glycan array binding signal (z-score),[21],0.67
same,glycan array binding signal (z-score),[22],-0.398
same,glycan array binding signal (z-score),[23],-0.326
same,glycan array binding signal (z-score),[24],-0.251
same,glycan array binding signal (z-score),[25],-0.356
same,glycan array binding signal (z-score),[26],-0.38
same,glycan array binding signal (z-score),[27],-0.397
same,glycan array binding signal (z-score),[28],-0.314
same,glycan array binding signal (z-score),[29],2.03
same,glycan array binding signal (z-score),[30],0.059
same,glycan array binding signal (z-score),[31],-0.44
same,glycan array binding signal (z-score),[32],-0.343
same,glycan array binding signal (z-score),[33],-0.344
same,glycan array binding signal (z-score),[34],-0.325
same,glycan array binding signal (z-score),[35],-0.338
same,glycan array binding signal (z-score),[36],-0.173
same,glycan array binding signal (z-score),[37],0.72
same,glycan array binding signal (z-score),[38],-0.297
same,glycan array binding signal (z-score),[39],-0.337
same,glycan array binding signal (z-score),[40],-0.373
same,glycan array binding signal (z-score),[41],-0.371
same,glycan array binding signal (z-score),[42],-0.374
same,glycan array binding signal (z-score),[43],-0.368
same,glycan array binding signal (z-score),[44],-0.486
same,glycan array binding signal (z-score),[45],2.12
